Results from PubChem BioAssay AID651687 (Broad Institute, 2012).
“And” between values parts separate entries of the source, which are not always exact repeats. Equal entries are not always repeated. In all, about 350,000 compounds went through this assay and about 600 (0.17%) were called active. The shares of active, inactive and inconclusive entries below differ from those in the screen.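 The calls were made as follows: active = every replicate shows inhibition of at least 40%; inconclusive = mean inhibition at least 40% but some replicate below; inactive = the rest.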

Test: compounds lowering acetylated PGC1a in cells – cell-based, U2OS, AlphaScreen, inhibitor mode, primary screen (AID 651687);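 also: 0% = neutral control wells and 100% = positive control wells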
Settings: U2OS PGC1a acetylation, AlphaScreen anti-acetyl-lysine; at 15.6 µM; stronger effect = higher value

SMILES	inhibition
COC(=O)C12OCC34C(CC5C(C)=C(O)C(=O)CC5(C)C3C(O)C1O)OC(=O)C(OC(=O)/C=C(\C)C(C)C)C24 (stereo not given)	active: 86.2%
Oc1ccc2c3c1O[C@H]1[C@@H](O)CC[C@@]4(O)[C@@H](C2)N(CC2CCC2)CC[C@]314	inconclusive: 56.7%
O=c1[nH]c2ccccc2n1C1CCN(C(c2cc3ccccc3o2)c2nnnn2Cc2ccccc2)CC1 (stereo not given)	active: 48.8%
CC(=O)OC[C@]12CCC(C)=C[C@H]1O[C@@H]1[C@H](O)[C@@H](OC(C)=O)[C@@]2(C)[C@]12CO2	active: 85.5%
CCN(CC)c1ccc(N=Cc2c(O)n(-c3ccc(OC)cc3)c(=O)[nH]c2=O)cc1	inconclusive: 46%
O=c1[nH]c2ccccc2n1C1CCN(C(c2cccs2)c2nnnn2-c2ccc3c(c2)OCCO3)CC1 (stereo not given)	inactive: 1.02%
C[C@@H]1C[C@@H]([C@H](O)CC2CC(=O)NC(=O)C2)C(=O)[C@@H](C)C1	active: 72.7%
O=C(Cc1cccnc1)N1CCCCN2[C@@H](CO)[C@@H](c3ccc(/C=C/c4ccccc4)cc3)[C@@H]2C1	inactive: 12.6%
Cc1ccc(CS(=O)(=O)CCC(=O)N2CCC3(CC2)OCCO3)cc1	active: 44.2%
CCOc1ccccc1N=C1SCCCN1C	active: 96.6%
CC(C)(O)/C=C/C(=O)[C@](C)(O)C1[C@H](O)C[C@@]2(C)C3CC=C4C(C[C@H](O)[C@@H](O)C4(C)C)[C@]3(C)C(=O)C[C@]12C (stereo not given in full)	active: 64.5%
CC(C)Oc1cccnc1N(C)C1CCN(Cc2ccccc2)CC1	inconclusive: 59%
CCOc1ccccc1CNCCc1ccc2c(c1)OCO2	inconclusive: 40.1%
Cc1ccccc1O	inactive: 10.9%
CC12CCC(O)CC1CCC1C2CCC2(C)C(C3=CC(=O)OC3)CCC12O (stereo not given)	active: 79.9%
C=C1C(=O)OC2CC(C)C3C=CC(=O)C3(C)C(O)C12 (stereo not given)	inconclusive: 42.3%
CCC1(OC(=O)CN)C(=O)OCc2c1cc1n(c2=O)Cc2cc3ccccc3nc2-1 (stereo not given)	inconclusive: 42.8%
CC(=O)OC1C2(CC3N4C(=O)C5(CO)SSC4(CC31O)C(=O)N5C)OC(C)C(C)(C)C2=O (stereo not given)	inconclusive: 60.7%
O=c1[nH]c2ccccc2n1C1CCN(C(CCc2ccccc2)c2nnnn2Cc2ccccc2)CC1 (stereo not given)	active: 103%
CC(=O)O[C@H]1C[C@@H]2OC3C=C(C)CCC3(C)[C@@]1(C)[C@@]21CO1 (stereo not given in full)	active: 83.8%
CC1CC(C)(O)CC(C(O)CC2CC(=O)NC(=O)C2)C1=O (stereo not given)	active: 76.9%
COc1cc(/C=C/c2nc3ccccc3c(=O)n2-c2ccc(O)cc2)ccc1O	inactive: -11.7%
COc1ccc(CC2C(=O)NC(C)C(=O)N(C)C3C(=O)N(C)C(Cc4ccc(O)c(c4)Oc4ccc(cc4)C3O)C(=O)NC(C)C(=O)NC(C)C(=O)N2C)cc1 (stereo not given)	active: 76.1%

SMILES	inhibition
O=C1CN=C(c2ccc[nH]2)c2cc(Cl)ccc2N1	inconclusive: 41.3%
CC1=CC2OC3CC4OC(=O)C=CC=CC(C(C)O)OCC(O)C5(C)OC5C(=O)OCC2(CC1O)C4(C)C31CO1 (stereo not given)	active: 87.1%
N#Cc1ccccc1NC(=O)CN1CC=C(c2ccccc2)CC1	inconclusive: 46.5%
CCn1nc(-c2cccs2)nc2c(=O)n(C)c(=O)nc1-2	inconclusive: 40.3%
COc1ccc(CCNC2(C#N)CCCCC2)cc1OC	active: 83.6%
CC1=CC2OC3CC4OC(=O)C=CC=CC(=O)OCCC(C)C(O)C(=O)OCC2(CC1)C4(C)C31CO1 (stereo not given)	active: 77.4%
CC1CCCN(CC(=O)N2CCCc3ccccc32)C1 (stereo not given)	inconclusive: 43.3%
COc1cccc2c1cc([N+](=O)[O-])c1c(C(=O)O)cc3c(c12)OCO3	inactive: -2.05%
COC(=O)C1C2c3ccccc3OC1(C)N=c1s/c(=C/c3cn(C)nc3C)c(=O)n12 (stereo not given)	inconclusive: 46.4%
COc1ccc(CC2NCC(O)C2OC(C)=O)cc1 (stereo not given)	active: 92.1%
O=c1[nH]c(=S)n(Cc2ccco2)c(O)c1C=NCc1cccs1	inconclusive: 41.2%
O=C1CSC2N1CCNC21CCCCC1 (stereo not given)	inconclusive: 41.7%
CC(=O)OC1CC(OC2C(O)CC(OC3C(O)CC(OC4CCC5(C)C(CCC6C5CCC5(C)C(C7=CC(=O)OC7)C(O)CC65O)C4)OC3C)OC2C)OC(C)C1OC1OC(CO)C(O)C(O)C1O (stereo not given)	inconclusive: 42.4%
O=C(c1cc(S(=O)(=O)N2CCOCC2)ccc1F)N1CCC2(CC1)OCCO2	inconclusive: 52.8%
Cc1c(C(=O)N2CCC3(CC2)OCCO3)oc2ccc(S(=O)(=O)N3CCOCC3)cc12	inconclusive: 43.4%
CC1=CC2OC3CC4OC(=O)C=CC=CC(C(C)O)OCC(O)C(C)CC(=O)OCC2(CC1O)C4(C)C31CO1 (stereo not given)	active: 80.9%
C[C@@H]1O[C@@H](O[C@@H]2C=C3CC[C@@H]4C(CC[C@]5(C)[C@@H](c6ccc(=O)oc6)CC[C@]45O)[C@@]3(C)CC2)[C@H](O)[C@H](O)[C@H]1O (stereo not given in full)	active: 67%
CNCC(=O)c1ccc(O)c(O)c1	inconclusive: 54.7%
N[C@@H](CCl)C(=O)O	inconclusive: 56.9%
COC(=O)[C@@H](N)CCCN=C(N)N[N+](=O)[O-]	inactive: -2.29%
CCC1(CC)C(=O)C=CNC1=O	inconclusive: 56.1%
CC1CCC[C@H](O)CCCCCc2cc(O)cc(O)c2C(=O)O1 (stereo not given in full)	inconclusive: 46.8%
COc1ccc(C(c2nnnn2Cc2ccccc2)N2CCC(n3c(=O)[nH]c4ccccc43)CC2)cc1 (stereo not given)	inactive: 21.1%

SMILES	inhibition
CC1CC(C)CC(C)C(O)C(C#N)=CC=CCC(C2CCCC2C(=O)O)OC(=O)CC(O)C(C)C1 (stereo not given)	inconclusive: 60.1%
Cn1ncnc2c(=O)n(C)c(=O)nc1-2	active: 100%
CC1=CC(=C2C(=O)NC(=S)NC2=O)C=C(C(F)(F)F)N1Cc1ccccc1	active: 87.5%
Cc1ccc(C[n+]2c(-c3ccc(C)cc3)cc(-c3ccc(C)cc3)cc2-c2ccc(C)cc2)cc1	active: 67.2%
O=[N+]([O-])c1ccc(N2CCOCC2)c2c1no[n+]2[O-]	active: 83.9%
O=C1/C(=C/c2ccccc2)C[C@@]2(O)[C@H]3Cc4ccc(O)c5c4[C@@]2(CCN3CC2CC2)C1O5 (stereo not given in full)	inconclusive: 45.1%
COc1cccc(N2C(=O)NC(=O)/C(=C/c3ccc([N+](=O)[O-])s3)C2=O)c1	inactive: -0.495%
CCCC#Cc1ccc([C@@H]2[C@@H](CO)N3CCCCN(C(=O)Cc4ccccn4)C[C@@H]23)cc1	inactive: 9.42%
c1cc(CNCCc2ccc3c(c2)OCO3)ccn1	inconclusive: 45.7%
NC(=O)c1cn(C2OC(CO)C(O)C2O)c2ncnc(N)c12 (stereo not given)	active: 92.6% and inconclusive: 45.7%
O=C1CN=C(c2ccccc2)c2cc([N+](=O)[O-])ccc2N1	inconclusive: 46.2%
COc1ccc(Oc2cc(NC(=O)c3nn(C)cc3[N+](=O)[O-])cc([N+](=O)[O-])c2)cc1	active: 78.1%
Cc1ccc(N2C(=O)NC(=O)/C(=C/c3ccoc3)C2=O)cc1	inconclusive: 49.5%
Cc1c(N=Nc2c(O)[nH]c(=O)[nH]c2=O)c(=O)n(-c2ccccc2)n1C	inactive: 4.45%
CC1CCC/C=C/C2CC(O)CC2C(O)/C=C/C(=O)O1 (stereo not given)	active: 72.6%
CC1=NN(c2ccccc2)C(=O)/C1=C/c1c(O)[nH]c(=O)[nH]c1=O	active: 49.1%
O=c1[nH]c(=S)[nH]c(O)c1N=Nc1ccc(SC(F)F)cc1	inconclusive: 50.5%
CCCN(CCC)[C@@H]1CCc2cccc(O)c2C1	inconclusive: 42.3%
COc1ccc(C[C@H]2NC[C@H](O)[C@H]2OC(C)=O)cc1	active: 89.8%
CCC1CN2CCc3cc(OC)c(OC)cc3C2CC1CC1NCCc2c1[nH]c1ccc(O)cc21 (stereo not given)	active: 70.5%
C1=C(c2ccccc2)CCNC1	inconclusive: 46.9%
CC1=CC(=O)C2=C(C)C[C@H](O)[C@@H]3[C@H](OC(=O)[C@H]3C)[C@@H]12	inconclusive: 52.6%
C[C@H]1CCC/C=C/C2C[C@H](O)CC2[C@H](O)/C=C/C(=O)O1 (stereo not given in full)	active: 72.2%

SMILES	inhibition
CCOC(=O)C1=Nc2ccccc2/C1=C\c1c(O)n(C)c(=O)n(C)c1=O	inconclusive: 43%
CC1=C(C/C(C)=C/c2ccccc2)/C(=C/CO)[C@@H]2OC(=O)O[C@]2(C)C12CC2	inconclusive: 43.1%
COc1ccc(-n2c(O)c(/C(C)=N/Nc3ccccc3)c(=O)[nH]c2=O)cc1	inconclusive: 44.6%
c1ccc2c(N3CCNCC3)cccc2c1	inconclusive: 49.3%
CC[C@H](C)[C@@H]1NC(=O)CNC(=O)c2csc(n2)[C@H](C(C)(C)O)OC(=O)C(C)(C)[C@H](CCCC(C)(Cl)Cl)OC(=O)c2csc1n2	active: 59.7%
O=C1NC2C(=CC(O)C(O)C2O)c2cc3c(cc21)OCO3 (stereo not given)	active: 85.4%
CCn1cc(C(=O)N2CCOCC2)c2ccccc21	inconclusive: 59%
CC(=O)OC(C)(C)/C=C/C(=O)[C@](C)(O)[C@H]1[C@H](O)C[C@@]2(C)[C@@H]3CC=C4[C@H](C[C@H](O)C(=O)C4(C)C)[C@]3(C)C(=O)C[C@]12C	active: 88.1%
Cc1cc(C)n(-c2ccc(NN=C(C#N)C#N)cc2)n1	inconclusive: 41%
CN1C2CCC1/C(=C/c1ccccn1)C(=O)/C2=C\c1ccccn1	active: 77.7%
CC1OC(OC2CC(O)C3(CO)C4C(O)CC5(C)C(C6=CC(=O)OC6)CCC5(O)C4CCC3(O)C2)C(O)C(O)C1O (stereo not given)	active: 80.6%
NC1C2CN3CCN(C2)CC1(c1ccccc1)C3 (stereo not given)	inconclusive: 51.7%
CC(=O)OC1CC(OC2C(O)CC(OC3C(O)CC(OC4CCC5(C)C(CCC6C5CCC5(C)C(C7=CC(=O)OC7)CCC65O)C4)OC3C)OC2C)OC(C)C1OC1OC(CO)C(O)C(O)C1O (stereo not given)	inconclusive: 55.7%
CC1CCOC(=O)C=CC=CC(=O)OC2CC3OC4C5OC5(C)C(O)CC4(COC(=O)C1O)C2(C)C31CO1 (stereo not given)	active: 76.8%
CCOC(=O)CNC(=O)N1Cc2ccc(Br)cc2-n2nncc2C1	inconclusive: 40.9%
c1ccc(C(CN2CCCCC2)c2ccccc2)cc1	active: 40.7%
C[C@H]1CCC/C=C/[C@@H]2C[C@H](O)C[C@H]2[C@@H](O)/C=C/C(=O)O1	inconclusive: 37.3%
C=C1C(=O)O[C@@H]2C[C@@H](C)[C@@H]3C=CC(=O)[C@@]3(C)[C@@H](O)[C@H]12	active: 47%
CC(=O)OCC12CC(OC(=O)CC(C)C)C(C)=CC1OC1C(O)C(OC(C)=O)C2(C)C12CO2 (stereo not given)	active: 73.6%
CC(=O)OC1(C)CC(C)C(=O)C(C(O)CC2CC(=O)NC(=O)C2)C1 (stereo not given)	active: 92.7%
CN1CCN(c2ccc([N+](=O)[O-])c3no[n+]([O-])c23)CC1	inconclusive: 63.5%
